Test results from PubChem BioAssay AID1347417 (National Center for Advancing Translational Sciences (NCATS), 2020).
Out of some 120,000 compounds screened, about 5,300 (4.4%) were called active. Inconclusive results, whose numbers are uncertain, are shown with a selection of clear calls. Calls come from the whole dose curve; as a rule, active = well fitted inhibition curve with a large enough effect; inconclusive = small, poorly fitted or top-dose-only effect; inactive = no such curve, though single readings can be large or run the other way. A potency beside an inconclusive call is a rough fit, not a confirmed value.

Experiment: qHTS Primary assay for Inhibitors of Plasmodium falciparum Dd2 growth in vitro; note: nearly all actives have a fitted effect of over 65% in size;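 for activity, negative = inhibition: plate controls were DMSO vehicle for no effect and reference drug for full effect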
Settings: P. falciparum Dd2 growth, SYBR Green, 72 h; activity, negative = inhibition: at 28.9 µM (top of the series) unless noted; series mostly up to 28.9 µM
In short: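 Infected erythrocytes (Dd2, 0.3% parasitemia, 2.5% hematocrit final) are added to compound in RPMI-1640/Albumax II medium, grown 72 h at 37C in low oxygen, then lysed with saponin/Triton-X containing SYBR Green and read by fluorescence.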
Potency is the fitted concentration of half-maximal effect; tags give direction and shape of the fitted curve.

| Structure (SMILES) | Potency | activity, negative = inhibition |
| --- | --- | --- |
| CC(C)N1CC2CCC(C1)N2Cc1ccc(-c2ccccc2)cc1 | inconclusive: 10 µM [inhibitor, partial curve, poor fit] | – |
| CCCc1cc(=O)oc2cc(C)c3c(C(C)(C)C)coc3c12 | inconclusive: 0.316 µM [inhibitor, partial curve, poor fit] | – |
| Cn1nccc1CN1CCC2(CC1)C(=O)Nc1ccccc12 | inconclusive: 1.41 µM [inhibitor, full curve, poor fit] | – |
| COCCN1C(=O)CS(=O)(=O)C12CCN(C(=O)C1(c3ccccc3)CC1)CC2 | inconclusive: 0.282 µM [inhibitor, full curve] | – |
| COc1ccccc1-c1nc(C(=O)NCCc2ccc(Cl)cc2)n2ccccc12 | – | inconclusive: -33.1% [inhibitor] |
| COCCN1C(=O)[C@H]2CC[C@@H]1CN(c1ncnc3sc(C)c(C)c13)C2 | inconclusive: 0.708 µM [inhibitor, partial curve, poor fit] | – |
| Fc1ccccc1CNC1(Cc2cc(COc3ccccc3)on2)COC1 | inconclusive: 12.6 µM [inhibitor, partial curve, poor fit] | – |
| O=C1COc2ccc(OCc3ccc(F)cc3)nc2CN1CCOc1ccccc1 | inconclusive: 3.16 µM [inhibitor, partial curve, poor fit] | – |
| COc1ccc(Cc2nc3ccc(C(=O)NCCCN4CCN(C)CC4)cc3o2)cc1 | inconclusive: 10 µM [inhibitor, single point] | – |
| O=C(c1ccc2c(c1)OCCO2)N(Cc1cccnc1)c1nc2c(F)cc(F)cc2s1 | inconclusive: 11.2 µM [inhibitor, single point] | – |
| COCCOC1CN(C2CCN(Cc3cccc(F)c3)CC2)C12CCCCC2 (configuration not stated) | active: 3.55 µM | – |
| NC(=O)CSc1nnnn1-c1cccc(O)c1 | inconclusive: 20 µM [inhibitor, partial curve, poor fit] | – |
| C[C@@H](NC(=O)C1CCOCC1)c1onc(-c2cccnc2)c1C(=O)O | inactive | – |
| CCc1cccc(NC(=O)c2oc3ccc4c(c3c2C)C(=O)CC(C)(C)O4)c1 | active: 10 µM | – |
| Cn1cc(CN2C[C@@H](F)[C@@H](OCc3nc4ncccc4[nH]3)C2)c2ccccc21 | inconclusive: 12.6 µM [inhibitor, partial curve, poor fit] | – |
| O=C(NCCN1CCOCC1)C1CN(S(=O)(=O)c2ccccc2)CC12CCCCC2 (configuration not stated) | active: 3.98 µM | – |
| CCCSc1nnc2c(n1)OC(c1ccc(OCC(=O)O)cc1)Nc1ccccc1-2 (configuration not stated) | inconclusive: 17.8 µM [inhibitor, partial curve, poor fit] | – |
| Clc1ccc(Nc2ncc(-c3cccnc3)c3c2OCC3)cc1 | active: 10 µM | – |
| COCCNC(=O)CCCN1C(=O)COc2ccc(C(=O)COc3c(C)ccc(C)c3C)cc21 | active: 10 µM | – |
| O=C(c1cc(F)ccc1F)N1CCCC(n2cc(-c3nc(-c4ccccc4)no3)nn2)C1 (configuration not stated) | inactive | – |
| CCOc1cc(=O)n2c(c1C(=O)NCCCN1CCCCC1)CCCCC2 | inactive | – |
| Cn1cc(C(=O)NCCc2ccccc2)c(=O)c2cc(S(=O)(=O)N3CCCCCC3)ccc21 | active: 12.6 µM | – |
| COCCOCC(=O)N1CCCC(c2nn(C)c(=O)n2-c2ccccc2)C1 (configuration not stated) | inactive | – |

| Structure (SMILES) | Potency | activity, negative = inhibition |
| --- | --- | --- |
| CCCNC(=O)C1CCN(Cc2cc3ccccc3n2Cc2ccccc2)CC1 | inconclusive: 5.62 µM [inhibitor, partial curve, poor fit] | – |
| O=C(Nc1ccc2c(c1)OCO2)C1CN(S(=O)(=O)c2cccnc2)CC12CCCCC2 (configuration not stated) | inconclusive: 12.6 µM [inhibitor, single point] | – |
| CCn1nccc1C(=O)N1CCC(OCCOc2ccc(F)cc2)CC1 | inactive | – |
| O=C(c1ccc2c(c1)OCO2)N1CCN2C(=O)N(Cc3ccc(F)cc3)C[C@H]2C1 | inactive | – |
| Cc1noc(C)c1CCC(=O)NC1CCc2nnc(C)n2CC1 (configuration not stated) | inactive | – |
| O=C1CN(C(=O)Nc2ccccc2Cl)C(c2ccccc2)c2c(sc3c2CCCC3)N1 (configuration not stated) | active: 10 µM | – |
| Cc1noc(-c2ccc(OC3CN(S(=O)(=O)c4cn(C)cn4)C3)cc2)n1 | – | inactive: 94.4% [at 5.79 µM] |
| COc1ccc(-c2cc(C(=O)NCCc3ccc(OC)c(OC)c3)c3ccccc3n2)cc1 | inconclusive: 17.8 µM [inhibitor, single point] | – |
| O=C(CCc1ccccc1)N1[C@H]2CC[C@@H]1c1cnc(-c3ccc(F)cc3)nc1C2 | inconclusive: 20 µM [inhibitor, single point] | – |
| Cc1ccccc1-c1nn(-c2ccc(F)cc2F)cc1CN1CCC(O)CC1 | active: 11.2 µM | – |
| Cc1cc(C(=O)N2C[C@@H](CO)[C@H](c3nc(C4CC4)no3)C2)ccn1 | inconclusive: 2.51 µM [inhibitor, full curve, poor fit] | – |
| Cc1cnn(Cc2cc(C(=O)N3CCCCCC3c3nnc(-c4ccccc4)o3)no2)c1 (configuration not stated) | inconclusive: 1.26 µM [inhibitor, partial curve, poor fit] | – |
| Cc1cc(C)cc(NC(=O)C(=O)NCC(c2cccnc2)N2CCN(c3ccccc3)CC2)c1 (configuration not stated) | inconclusive: 10 µM [inhibitor, single point] | – |
| CC(C)CN1C(=O)c2ccccc2C(C(=O)NCc2ccccn2)C12CCCCC2 (configuration not stated) | inconclusive: 20 µM [inhibitor, single point] | – |
| CCCCn1cc(S(=O)(=O)c2ccc(CC)cc2)c(=O)c2cc(F)c(N3CCOCC3)cc21 | inconclusive: 7.94 µM [inhibitor, partial curve, poor fit] | – |
| CC(C)(Oc1nn(CCOc2ccccc2)c2ccccc12)C(=O)NCc1ccncc1 | inconclusive: 5.62 µM [inhibitor, single point] | – |
| O=C(CCn1ccn2nc3c(c2c1=O)CCCC3)Nc1ccc2c(c1)OCO2 | inconclusive: 11.2 µM [inhibitor, single point] | – |
| CC(C)N1C[C@H](O)C[C@H]1c1nnc2n1CCN(C(=O)c1cnccn1)CC2 | inconclusive: 1.58 µM [inhibitor, single point] | – |
| O=C(C[C@@H]1CCNC[C@@H]1Cc1cc(CSc2ccccc2)on1)NC1CCCCC1 | inactive | – |
| Cc1cc(C)cc(NC(=O)CCCn2c(=O)c3cccn3c3ccccc32)c1 | inconclusive: 14.1 µM [inhibitor, single point] | – |
| COCc1nn(CC(=O)NCc2ccc(C)o2)c(=O)n1-c1ccccc1 | inactive | – |
| COCCNC(=O)[C@H]1C[C@H](Oc2cccnc2)CN1C(=O)c1cccc(OC)c1 | inactive | – |
| COc1cc(OC)cc(C(=O)N2[C@@H]3CC[C@H]2CC(NC(=O)c2ccncc2)C3)c1 (some centres not stated) | inactive | – |

| Structure (SMILES) | Potency | activity, negative = inhibition |
| --- | --- | --- |
| Cc1ccccc1-c1[nH]nc2ncc(-c3c(C)noc3C)nc12 | inactive | – |
| O=C([C@@H]1C[C@H](Oc2ccccc2)CN1C(=O)COc1ccccc1)N1CCOCC1 | inconclusive: 2.24 µM [inhibitor, partial curve] | – |
| COc1ccc(-c2nc3ccccc3s2)cc1NC(=O)COc1cccc(C)c1 | inconclusive: 14.1 µM [inhibitor, partial curve, poor fit] | – |
| CCc1nc2ccc(C(=O)NCc3cccc(Br)c3)cc2nc1CC | inconclusive: 10 µM [inhibitor, single point] | – |
| O=C(Nc1ccc(F)cc1)Nc1ccc2snnc2c1 | inconclusive: 3.98 µM [inhibitor, single point] | – |
| O=C(c1ccc(N2CC3CC(C2)[C@H]2CCCC(=O)N2C3)nc1)N1CCCC1 (some centres not stated) | inactive | – |
| CCc1cccc(NC(=O)CN(c2ccc(C)cc2)S(=O)(=O)c2cccs2)c1 | inconclusive: 11.2 µM [inhibitor, partial curve] | – |
| CCc1nc(-c2c3n(c(=O)n(Cc4cc(F)ccc4F)c2=O)CCCCC3)no1 | inconclusive: 3.98 µM [inhibitor, single point] | – |
| Cc1ccc(C(=O)N2CCc3cc(CNC(=O)CCc4ccccc4)ccc32)cc1 | inconclusive: 0.0398 µM [inhibitor, full curve, poor fit] | – |
| Cc1nc([C@H]2CCNC[C@H]2NC(=O)C2CC2)n[nH]1 | inactive | – |
| CN(C)CCNC(=O)c1n[nH]c2c1CN(C(=O)c1cc(F)ccc1Cl)CC2 | inactive | – |
| CNC(=O)[C@@H]1C[C@H](Oc2ccccc2)CN1C(=O)Cn1nc(C(F)(F)F)cc1C | inconclusive: 2.82 µM [inhibitor, partial curve] | – |
| CCNC(=O)NC[C@H]1COCc2nc3cc(C(=O)OC)ccc3n21 | inactive | – |
| COc1ccc(-c2cc(N3CCC(NC(=O)c4cccc(F)c4)CC3)n[nH]2)cc1 | inactive | – |
| Cc1ccc(CCNC(=O)C2CCN(c3cc(C(F)(F)F)nc(C)n3)CC2)cc1 | inconclusive: 11.2 µM [inhibitor, single point] | – |
| CCOc1ccccc1NC(=O)CCc1c(C)nc2c3cccnc3nn2c1C | inconclusive: 14.1 µM [inhibitor, partial curve, poor fit] | – |
| COc1ccc(Cl)cc1C1CC(=O)Nc2cc3c(cc21)OCCO3 (configuration not stated) | inconclusive: 10 µM [inhibitor, single point] | – |
| C=CCn1cc(CN2CCOC(Cc3cccc4ccccc34)C2)c(C)n1 (configuration not stated) | inconclusive: 12.6 µM [inhibitor, single point] | – |
| CCCCNc1sc(S(=O)(=O)CCC)nc1S(=O)(=O)c1ccc(C)cc1 | inconclusive: 11.2 µM [inhibitor, partial curve, poor fit] | – |
| COc1cccc(C2Cn3nnc(-c4nc(-c5cccc(C)c5)no4)c3CO2)c1 (configuration not stated) | inconclusive: 6.31 µM [inhibitor, single point] | – |
| CN(C)c1ncnc2sc3c(c12)CCN(Cc1ccco1)C3 | active: 3.98 µM | – |
